# From publication PMC10668032
# This is one part of the list. At the low end of the ranking, values are background and their order means little.
# Target: SIX1-Q177R homeodomain (UniProt Q15475)
# Test: universal protein binding microarray
# Conditions: Universal all-10-mer PBM (8x60K, AMADID 030236), 300 nM GST-tagged protein, Alexa Fluor 488 anti-GST; buffer, salt, pH and temperature not stated; high values mean tight binding; most listed sequences are background and not binding sites; double strand, one strand shown
row,Sequence,binding signal [E-score]
1,ACCCAAGA,0.163
2,GAATTGCC,-0.243
3,GATCTACC,0.011
4,GGGGCAAA,-0.159
5,GCTTCGCA,-0.122
6,GAAACGTC,-0.158
7,ACGACTAT,-0.0394
8,TGTACCAA,0.164
9,ATAGCTTG,-0.193
10,TACTCTAA,-0.0139
11,AAATGCTT,-0.233
12,CCACTTCC,0.16
13,CTGGGCTC,-0.274
14,CGAGCTCA,-0.213
15,ACTATCGA,0.156
16,ACCAGATC,0.164
17,AAGAAAGA,-0.335
18,CCCTGCTA,-0.0229
19,CCGTAACA,0.145
20,TGGCTTAA,-0.223
21,ACCCGTAA,0.264
22,GGTCGGTA,-0.000165
23,TAAGAGGA,-0.106
24,CGACACAG,0.251

row,Sequence,binding signal [E-score]
1,CTATGCAA,-0.141
2,ATATGAAG,-0.0649
3,GCCGACCC,0.132
4,GAAGTGAC,-0.116
5,GAAGTCAA,-0.24
6,GAATCGAC,0.0378
7,GTGTGAAA,0.356
8,ACTCACCG,0.0377
9,CGTAAGAC,-0.186
10,GCAGCGGC,-0.195
11,GGCGTATA,0.0351
12,GTTAATCA,-0.226
13,GCCTTCGC,-0.126
14,CTGGTAGA,-0.0129
15,CTTGAAAC,0.0164
16,AGTTGAAT,-0.274
17,AATGTTCT,-0.216
18,AGTACCGC,0.0481
19,AAATTGTT,-0.113
20,CCACATAC,0.00319
21,AGATCGGA,-0.00039
22,CATGAATC,-0.0785
23,ACGTATTA,0.00142
24,ACCAGGCC,0.0416

row,Sequence,binding signal [E-score]
1,AGTTAGAC,-0.115
2,AAACAGAG,-0.148
3,TATGCAGA,-0.158
4,AGTTGGCC,-0.0822
5,ACTGATCT,0.00396
6,CGTTCTCC,-0.124
7,ACTAGACC,0.0472
8,AGGAGCAG,-0.227
9,ATTAGCGG,-0.191
10,AGCACTGA,-0.165
11,CACTACAG,0.196
12,ATTGGTAA,-0.351
13,AAGTTCAA,-0.182
14,CTGAGCAC,0.254
15,CCAGTATA,-0.171
16,ACCTAAAA,-0.0543
17,GCCCAGGA,-0.141
18,GGGAGTCA,0.221
19,CCGCGAAA,0.167
20,CAGCCAAC,-0.0555
21,GTTTGGGA,-0.104
22,AAGGTGTA,0.461
23,AGATTATA,-0.17
24,TCACAGAA,0.0166

row,Sequence,binding signal [E-score]
1,AGTACTCC,0.122
2,ACTAGTCT,-0.0778
3,GAATTTGA,-0.313
4,AACTAGCC,-0.131
5,AGGACTTC,-0.205
6,CAAATTTC,-0.179
7,ATGCAATC,-0.134
8,CACTCAGG,0.235
9,AATCTGTC,-0.225
10,ACACGCTA,0.383
11,AGCCTACT,-0.0294
12,AACTGAGT,-0.12
13,CCCTACAC,0.424
14,ACGGATAA,0.158
15,CGTCTATA,0.0332
16,ACGCCGAC,0.127
17,AAGTATTC,-0.284
18,ACTCCCGA,0.172
19,CTCTGCCA,-0.111
20,GGCACAAA,0.103
21,ATTTCCAG,-0.132
22,CAAATCAA,0.00417
